The text below walks through data of ChEMBL document CHEMBL4888484, “Replenishing the malaria drug discovery pipeline: Screening and hit evaluation of the MMV Hit Generation Library 1 (HGL1) against asexual blood stage Plasmodium falciparum ,using a nano luciferase reporter read-out” (2022).

The structures appear in SMILES notation. About 540 (0.36%) of roughly 150,000 compounds showed an effect of 50% or more. This is one part of the list.

The assay deals with Plasmodium falciparum. As to the kind of experiment: Primary screen in NF54 nanoGlo assay, in single point, at 2uM, 72h; a lower Z score goes with more inhibition. Format: functional, Erythrocyte. As to conditions: timepoint 72 hour.
On to `CCN1CCC(CC(=O)N2CC[C@](c3nnnn3C3CCCC3)(N(CC)CC)C2)CC1`, for which the “% Inhibition” value was -8% and the Z score is on record as 1.08.
As to `O=C(O)[C@@H]1CC2(CCNCC2)CN1C(=O)c1cccc(Oc2ccccc2)c1`, the “% Inhibition” value is -12% and the Z score stood at 1.14.
For `CCN[C@H](c1cccnc1)c1csc2ccccc12` the same measures were -6% and 0.88.
Regarding `O[C@H]1CN(Cc2cccc3ccccc23)CC[C@@H]1N1CCCCCC1`, the “% Inhibition” value was -8% and the Z score is listed as 1.05.
The corresponding values for `CC(=O)Nc1cc(NCC(C)(C)S(C)(=O)=O)ccc1Cl` are -8% and 0.72.
On to `Cc1cc(CN2CCC[C@H](c3c[nH]c4ncccc34)C2)c(C)nn1`, for which the “% Inhibition” value worked out at 2% and the Z score is reported as -0.28.
As to `Cc1nc(NCCc2noc(CO)n2)cc([C@H]2C[C@@H](O)C2)n1`, the “% Inhibition” value was found to be 9% and the Z score is listed as -1.
For `CC/C=C(\C)CN1CC[C@H](CNC(=O)C(C)(C)C)C1` the same measures were -20% and 2.78.
The corresponding values for `CCCN(C[C@H]1CCCO1)C(=O)c1cc(C)[nH]c(=O)c1` are 2% and -0.33.
For `CCS(=O)(=O)c1ccc(S(=O)(=O)N2CCCc3n[nH]cc32)cc1` the same measures were -12% and 1.09.
Regarding `COc1cccc(O)c1-c1nc2c(C)c(C)c(C)c(C)c2[nH]1`, the “% Inhibition” value is listed as -1% and the Z score is listed as 0.27.
The corresponding values for `O=C(N[C@H]1CCc2nnc(C3CC3)n2CC1)c1cnco1` are -7% and 1.07.
As to `NC(=O)c1ccc(NC(=O)c2ncccn2)cc1`, the “% Inhibition” value was -8% and the Z score turned out to be 1.46.
The corresponding values for `CCC1CCC(C)N1C(=O)NCc1nnc2n1CCC2` (stereo not drawn) are 38% and -3.79.
With `O=c1c(NCCc2ccc(Cl)cc2)nccn1Cc1ccc(F)cc1`, the “% Inhibition” value is recorded as 9% and the Z score is on record as -1.02.
On to `COCCN(CCS(=O)(=O)c1ccccc1)CC(=O)N(C)C`, for which the “% Inhibition” value is given as -2% and the Z score is 0.2.
On to `Cc1ncc([C@H](C)Nc2cccc(OCCF)c2)s1`, for which the “% Inhibition” value is 1% and the Z score was -0.07.
With `CC(C)Cc1nc(-c2ccccc2)oc1CC(=O)NCc1cccc(Cl)c1`, the “% Inhibition” value stood at 2% and the Z score is reported as -0.41.
For the molecule `COCCNC(=O)[C@H]1CCCN(C2CCN(c3ccc4ccccc4n3)CC2)C1`, the “% Inhibition” value is -17% and the Z score is recorded as 1.61.
For the molecule `CCn1c(=O)c(C(=O)NCc2ccc(C)o2)nc2cccnc21`, the “% Inhibition” value is reported as -3% and the Z score was determined as 0.31.
The corresponding values for `CCN(Cc1nc(-c2cccs2)no1)C(=O)CCc1ccccc1Cl` are 31% and -3.47.
The corresponding values for `CCN(CC(C)C)C(=O)NCc1cn(C(C)(C)C)c(=O)[nH]c1=O` are -13% and 2.6.
The corresponding values for `Cc1noc(CN(C)Cc2ccc(N3CCOCC3)cc2)n1` are -14% and 1.88.
Regarding `COc1cccc(NC(=O)c2c([O-])n(-c3cccc(OC)c3)n[n+]2Cc2ccccc2)c1`, the “% Inhibition” value is -32% and the Z score came out at 3.76.
For `O=C(NCC1CCCCC1)c1ccc(S(=O)(=O)Nc2ccncc2)cc1` the same measures were -2% and 0.23.
For `FC(F)(F)c1ccc(-c2cc(C(F)(F)Cl)n3nc(N4CCN(c5ccccc5)CC4)nc3n2)cc1` the same measures were 3% and -0.38.
For `CCc1nccn1CCC(=O)N(C)Cc1cc(-c2ccccc2)n[nH]1`, the “% Inhibition” value is given as -11% and the Z score came out at 1.55.
As to `O=S(=O)(N[C@H]1CC[C@H](Oc2ccccn2)CC1)C1CC1`, the “% Inhibition” value is on record as -11% and the Z score was determined as 1.31.
For `COc1ccc(NC(=O)c2nc(Nc3ccccc3)c3ccccc3n2)cc1`, the “% Inhibition” value amounted to 22% and the Z score is on record as -4.09.
The corresponding values for `O=C(NCCC1(O)CCN(c2ccccc2)CC1)c1[nH]ccc1C1CC1` are -8% and 1.22.
For `OCC[C@H]1CN(c2noc(-c3ccccc3)n2)CCN1CCc1ccccc1` the same measures were -3% and 0.25.
For `Cn1ccnc1C(Nc1nc(C2CCOCC2)ns1)c1nccn1C` the same measures were -8% and 1.48.
Turning to `O=C(c1ccncc1)N1N=C(C2CC2)C[C@]1(O)C(F)(F)F`, the “% Inhibition” value is recorded as -4% and the Z score stood at 0.53.
The corresponding values for `Cc1ccc2nc(-c3ccc(NC(=O)c4cccs4)cc3)oc2c1` are -12% and 1.63.
For `CCCn1nnnc1Cn1c(C)nnc1-c1cccc(C#N)c1` the same measures were -12% and 1.09.
Regarding `O=C(CC[C@@H]1N=C(O)c2ccccc2NC1=O)NCCn1cnc2cc(Cl)ccc21`, the “% Inhibition” value is -12% and the Z score amounted to 1.55.
The corresponding values for `CC1(C)CN(Cc2cccc(F)c2F)CC[S@+]1[O-]` are 2% and -0.18.
Take `O=C(NCc1ccccc1)c1coc(CN(Cc2ccccc2)Cc2ccc(Cl)cc2Cl)n1`: the “% Inhibition” value is 1% and the Z score was -0.2.
In the case of `C[C@H]1CCCN(C(=O)CCc2ccc3c(c2)OCO3)C1`, the “% Inhibition” value is given as -13% and the Z score was 1.62.
On to `CC1(C)C[C@@H](O)CCN(CCn2cnc3ccccc3c2=O)C1`, for which the “% Inhibition” value was -5% and the Z score is 0.92.
For the molecule `Cc1c(C(=O)NCCCN(C)C)nnn1-c1cccc2cccnc12`, the “% Inhibition” value is reported as 4% and the Z score is -0.7.
For `CC(=O)N1CCN(Cc2ncnn2CCF)CC12CCCCC2` the same measures were -6% and 0.77.
Regarding `Cc1c(C(=O)O[C@@H](C)c2nc3ccccc3o2)cnn1C`, the “% Inhibition” value is recorded as -5% and the Z score was 0.59.
The corresponding values for `Cc1cc(C)c(CNC(=O)[C@H](O)c2ccccc2)cn1` are -14% and 1.37.
The corresponding values for `CC(C)n1cccc1C(=O)NCCc1csc(N)n1` are 3% and -0.53.
The corresponding values for `Cc1noc(CNC(=O)NCCC[C@H]2CCCCO2)n1` are -9% and 1.01.
With `CCO[C@H]1CN(Cc2cccc3nonc23)C[C@@H]1O`, the “% Inhibition” value came to 7% and the Z score was -1.26.
For `Cc1cccc(O[C@H]2COCCN(Cc3cnn(C)c3)C2)n1` the same measures were -4% and 0.52.
For `Cc1nc[nH]c1-c1nccn1CCc1ccc(S(N)(=O)=O)cc1` the same measures were -14% and 2.03.
Take `COc1ccc([C@@H]2C=C(c3ccc(Cl)cc3)N=C3NC(N4C(=O)c5ccccc5C4=O)=NN32)cc1`: the “% Inhibition” value is reported as -6% and the Z score was determined as 0.61.
The corresponding values for `O=C(c1nnn2c1CO[C@H](c1ccccc1)C2)N1CCN(c2ncccn2)CC1` are -5% and 0.6.
As to `CCCCN(CC(N)=O)Cc1cc(C)ccc1OC`, the “% Inhibition” value is 1% and the Z score was -0.15.
Consider `C=CCn1cc(-c2cc(-c3cc(F)cc(F)c3)nc(N)c2C#N)cn1`, for which the “% Inhibition” value is -12% and the Z score came to 1.31.
For `CCCc1cc(C(=O)NCc2ccc3c(c2)OCO3)cs1`, the “% Inhibition” value is -9% and the Z score was determined as 1.23.
`CC(=O)Nc1ccc(Nc2cc(Oc3ccc(Br)cc3)c(S(=O)(=O)C(F)(F)F)cc2S(=O)(=O)C(F)(F)F)cc1`: the “% Inhibition” value is reported as -5% and the Z score was 0.48.
Take `CCN1C(=O)C(=O)N(Cc2coc(-c3ccc(C)cc3C)n2)C1=O`: the “% Inhibition” value came to 0% and the Z score amounted to 0.07.
The corresponding values for `C#CCCC1(CCC(=O)N2CCC[C@H]3O[C@@H](c4ccccc4)C[C@H]32)N=N1` are -1% and 0.15.
Regarding `COc1ccc(C(=O)N2CC(n3ccnc3)C2)cc1F`, the “% Inhibition” value was -9% and the Z score is 1.15.
`CCOCCN1CCN(c2nn3cc(C)nc3s2)C[C@@H]1CC`: the “% Inhibition” value is listed as -13% and the Z score is 1.87.
For `COc1ccnc(N2CCN(S(C)(=O)=O)c3ccccc3C2)n1` the same measures were 1% and -0.22.
With `CNC(=O)C1CCCN1C(=O)NC(c1ccccn1)C1CCCC1` (stereo not drawn), the “% Inhibition” value is 0% and the Z score is listed as -0.01.
On to `Cc1ccc(S(=O)(=O)N2CCN([C@@H](C)c3nccs3)CC2)o1`, for which the “% Inhibition” value is reported as -5% and the Z score was determined as 0.46.
The corresponding values for `Cc1ccc2nc(CN3CCN(C(=O)Nc4ccc(Br)c(C)c4)CC3)oc2c1` are -23% and 2.02.
`Cc1ccc(CN2C[C@@H](CO)[C@H](NC(=O)c3ccccc3)C2)nc1`: the “% Inhibition” value is -17% and the Z score was found to be 2.33.
The corresponding values for `Cc1c(-c2noc(-c3cccnc3)n2)nnn1Cc1cccc(F)c1` are -3% and 0.6.
As for `Cc1nc(-c2ccc(C)c(NC(=O)CN3CC(C)OCC3C)c2)n[nH]1` (stereo not drawn), the “% Inhibition” value was -1% and the Z score is given as 0.17.
For `CCc1ccc(CN2CCC[C@@](CO)(CC3CC3)C2)nc1` the same measures were -8% and 1.59.
For `C[C@H](NC(=O)Cc1cccc2ccccc12)c1ccco1`, the “% Inhibition” value was -44% and the Z score is recorded as 5.15.
As to `CC(=O)N1CCC(CNc2nc(N)nc(C)c2Cl)CC1`, the “% Inhibition” value is -1% and the Z score is 0.14.
For `O=C1CCC(C(=O)N2CC[C@@]3(CCCN(CC4CCC4)C3=O)C2)=NN1` the same measures were -12% and 1.32.
For `COc1ccc(CN2CCNC(=O)[C@@H]2CC(=O)N2CCc3ccccc3C2)cc1C` the same measures were -1% and 0.27.
The corresponding values for `CCOc1ccc(NC2=N[C@H](C(=O)NCc3ccccc3)CC(=O)N2)cc1` are -8% and 1.02.
For the molecule `Cc1c(C(=O)N2CCN(S(=O)(=O)c3ccccc3)CC2)oc2c1ccc1ccccc12`, the “% Inhibition” value is listed as -5% and the Z score was determined as 0.75.
For `CC(C)(C)c1cc(CN2C[C@H](C(=O)O)[C@@H](c3ccc4c(c3)OCO4)C2)n[nH]1` the same measures were -2% and 0.3.
The corresponding values for `c1ccc(Nc2c3ccccc3c(Nc3ccccc3)c3ccccc23)cc1` are -1% and 0.17.
For `CC[C@@H](c1ccccc1)S(=O)(=O)Cc1nc(C2CC2)n[nH]1` the same measures were -7% and 0.67.
With `O=S1(=O)CCC2(CC1)C[C@@H]2c1nc(C2(c3ccccc3)CCOCC2)no1`, the “% Inhibition” value is listed as 2% and the Z score was -0.39.
The corresponding values for `Cc1cc(F)cc(C(=O)Nc2cc(-c3cccnc3)nn2CCO)c1` are 14% and -1.45.
The corresponding values for `CS(=O)(=O)c1ccc(OC[C@H]2C[C@@H](NC(=O)c3ccccc3)[C@H](O)[C@@H]2O)cc1` are 14% and -2.19.
As for `CCn1ccc(-c2nnc(Nc3ccn(Cc4c(F)cccc4Cl)n3)s2)n1`, the “% Inhibition” value worked out at 9% and the Z score is recorded as -1.31.
The corresponding values for `Cc1cc(C)cc(-n2ncc3c(N4CCCCCC4)ncnc32)c1` are -17% and 2.03.
For `CCc1nc(-c2cc3ccccc3o2)n(CC(C)(C)O)n1` the same measures were -11% and 2.26.
Consider `Cc1cccc(CN(C)C(=O)c2onc3c2CCCC3)n1`, for which the “% Inhibition” value is listed as -1% and the Z score is on record as 0.17.
For the molecule `Cc1cccnc1NC(=O)N(C)CCCOCc1ccccc1`, the “% Inhibition” value was 2% and the Z score was -0.19.

As usually defined, the % Inhibition is the change of the read-out against control, counted positive when it falls.
